Screen size: about 390,000 compounds; about 4,700 (1.2%) were called active. The inconclusive results got no clear call from the source; some entries with a clear call stand among them for comparison. The call rests on the fitted dose curve; in most records, active means well fitted inhibition curve with a large enough effect; inconclusive means small, poorly fitted or top-dose-only effect, or another doubt; inactive means no such curve, though single readings can be large or run the other way. Potencies beside an inconclusive call are fits to weak or partial responses and may not hold up.
What follows are molecules tested against DNA polymerase eta (Homo sapiens) (UniProt Q9Y253) (assay: qHTS for Inhibitors of Polymerase Eta). Details: recombinant Pol eta, fluorescent DNA replication assay; series mostly up to 114 µM; activity change, negative = inhibition: at the top concentration.
Outline: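 Pol eta (10 nM) was preincubated with compounds for 15 min at room temperature, after which fluorescent replication substrate (50 nM final) was added to start the reaction. Fluorescence was read kinetically at 0 and 10 min.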
On the % scale 0 is the no-effect control and ±100 the full control effect; potency means the concentration at half of the fitted maximal effect; tags describe the fitted curve by direction and shape.

Sequence of UniProt Q9Y253 (Q9Y253 whole entry, looked up): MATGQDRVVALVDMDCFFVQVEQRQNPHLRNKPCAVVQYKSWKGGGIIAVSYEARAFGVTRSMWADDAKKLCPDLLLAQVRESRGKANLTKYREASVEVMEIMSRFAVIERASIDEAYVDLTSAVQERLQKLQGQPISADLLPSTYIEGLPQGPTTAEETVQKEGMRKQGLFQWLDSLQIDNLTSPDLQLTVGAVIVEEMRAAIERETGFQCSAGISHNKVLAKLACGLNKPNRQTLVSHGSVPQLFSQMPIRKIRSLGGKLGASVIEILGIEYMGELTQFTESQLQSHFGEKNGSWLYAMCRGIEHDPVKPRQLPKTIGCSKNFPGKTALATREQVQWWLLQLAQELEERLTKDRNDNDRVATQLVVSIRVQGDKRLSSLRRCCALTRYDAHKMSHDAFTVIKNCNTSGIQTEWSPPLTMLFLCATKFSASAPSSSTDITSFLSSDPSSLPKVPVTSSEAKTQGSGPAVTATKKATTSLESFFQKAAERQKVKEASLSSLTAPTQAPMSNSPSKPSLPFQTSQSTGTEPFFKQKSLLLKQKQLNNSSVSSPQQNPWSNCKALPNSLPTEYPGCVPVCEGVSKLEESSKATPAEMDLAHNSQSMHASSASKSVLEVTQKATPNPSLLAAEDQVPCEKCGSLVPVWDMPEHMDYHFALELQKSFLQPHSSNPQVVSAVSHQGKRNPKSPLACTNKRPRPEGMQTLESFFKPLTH

| Compound | Potency | activity change, negative = inhibition |
| --- | --- | --- |
| COc1ccccc1NC(=O)CN(c1ccc(C(C)C)cc1)S(=O)(=O)c1c(C)noc1C | inconclusive: 56.2 µM [inhibitor, partial curve, poor fit] | – |
| CCc1ccc(Nc2cc(C)nc3nc(Cc4ccc(Cl)cc4)nn23)cc1 | – | inactive: -9.19% |
| Cc1cc(C)nc(OC(C(=O)O)C(OCC(C)C)(c2ccccc2)c2ccccc2)n1 (stereo not drawn) | inconclusive: 100 µM [inhibitor, partial curve, poor fit] | – |
| COc1ccc(-c2nc3cc(NC(=O)c4ccc5c(c4)OCO5)ccc3o2)cc1 | inconclusive: 22.4 µM [inhibitor, single point] | – |
| N#CC(c1nc2ccccc2nc1N1CCCC1)S(=O)(=O)c1ccccc1 (stereo not drawn) | inconclusive: 17.8 µM [inhibitor, partial curve, poor fit] | – |
| O=C(CSCc1ccc(Cl)cc1)N/N=C/c1ccc(OCC(=O)Nc2ccccc2)cc1 | – | inactive: -16.4% |
| N=C1S/C(=C\c2cccc3ccccc23)C(=O)N1c1ccc(F)cc1 | inconclusive: 20 µM [inhibitor, partial curve, poor fit] | – |
| C=C1CCC(C)C(C)(CCC2=CCOC2=O)C/C=C\C=C/1C(=O)O (stereo not drawn) | active: 28.2 µM | – |
| Cc1ccc(C(=O)CC2(O)C(=O)N(CCc3ccccc3)c3ccc(Br)cc32)o1 (stereo not drawn) | – | inactive: -18.9% |
| CCC(=O)NC1=C(Cl)C(=O)C(NC(=O)CC)=C(Cl)C1=O | inconclusive: 89.1 µM [inhibitor, single point] | – |
| O=C(Nc1ccc(Oc2ccsc2C(=O)O)cc1)c1ccccc1F | inconclusive: 35.5 µM [inhibitor, single point] | – |
| COc1cc(NC(=O)c2ccco2)c(C(=O)OCC(=O)Nc2ncc(Cl)cc2Cl)cc1OC | inconclusive: 79.4 µM [inhibitor, partial curve, poor fit] | – |
| Cc1nc2cc(N3CCCCC3)c(NC(=O)c3cccnc3)cc2c(=O)n1Cc1ccccc1 | inconclusive: 39.8 µM [inhibitor, single point] | – |
| COc1cc(-c2nnc(CSc3nnc(Nc4ccc(C(C)C)cc4)s3)o2)cc(OC)c1OC | inconclusive: 28.2 µM [inhibitor, partial curve, poor fit] | – |
| COc1cccc(C(=O)N2c3ccccc3Sc3ccccc32)c1 | inconclusive: 89.1 µM [inhibitor, partial curve, poor fit] | – |
| Cc1ccc(S(=O)(=O)N2CCCC2)cc1C(=O)O | inconclusive: 39.8 µM [inhibitor, single point] | – |
| Cc1cc(CC(=O)O)c2oc(-c3ccoc3)cc(=O)c2c1 | active: 8.91 µM | – |
| Cc1cccc(OCC(=O)N/N=C/C=C/c2ccco2)c1 | inconclusive: 12.6 µM [inhibitor, full curve, poor fit] | – |
